Results: publication PMC7819943, “Rice protein-binding microarrays: a tool to detect cis-acting elements near promoter regions in rice”
This is one part of the list.

Target: T1, OsWOX13 (Oryza sativa, UniProt Q5QMM3 1-267)
T1 sequence: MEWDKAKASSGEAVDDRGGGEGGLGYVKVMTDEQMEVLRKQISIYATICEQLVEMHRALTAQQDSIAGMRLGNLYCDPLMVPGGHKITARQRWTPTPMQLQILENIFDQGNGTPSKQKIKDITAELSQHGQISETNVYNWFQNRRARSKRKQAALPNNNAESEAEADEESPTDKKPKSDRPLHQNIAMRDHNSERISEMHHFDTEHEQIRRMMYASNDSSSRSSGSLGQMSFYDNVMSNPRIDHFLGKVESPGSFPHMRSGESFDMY
Experiment: protein-binding microarray (RPBM); PBS, 2% BSA, 51.3 ng/ul salmon testes DNA, 50 uM zinc acetate, 200 nM TF, 25 C, 1 h; high values mean tight binding
Conditions: protein: recombinant; tags: N-terminal polyhistidine and DsRed monomer fusion (pET32a); label: CyDye5-dUTP incorporated in the synthesized complementary strand; 3' TTTTT single-stranded linker to array surface; dsDNA, one strand shown
How it was run: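 Binding signal here means per-feature fluorescence intensity in arbitrary units. The values were read on an Axon 4000B scanner after a custom Agilent array, double-stranded by primer extension with Cy5-dUTP, was incubated with 200 nM protein at 25 °C for 1 h in PBS with 2% BSA, salmon testes DNA and 50 µM zinc acetate, then washed. The proteins were transcription factors with an N-terminal polyhistidine tag and DsRed, expressed in E. coli BL21-CodonPlus and purified on Ni–NTA.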

Sequence	binding signal
TCTCTACCAATCATATTTATTCTTCATCTATTATGAAGACCGGAGTCACCTAGTGCAG	7220 fluorescence intensity (a.u.)
CCATTTAATTTAATTTATTTATACAGCAAAAGAATTCATGCGGAGTCACCTAGTGCAG	26100 fluorescence intensity (a.u.)
CTTGTTCTTCTTAGTTCATCAATCAACATGATGAAATATTCGGAGTCACCTAGTGCAG	4600 fluorescence intensity (a.u.)
ACATAACTAATCAAGTTTTAATTGCTCTAAATTTAAAATTCGGAGTCACCTAGTGCAG	15700 fluorescence intensity (a.u.)
TTTCAAAATTTAAACAATTTCCAGCATTTTGGCCTGGAAGCGGAGTCACCTAGTGCAG	3340 fluorescence intensity (a.u.)
ATTTGATCTGATTTGATTAATTTTGCATGCACGCGAATGGCGGAGTCACCTAGTGCAG	61700 fluorescence intensity (a.u.)
TTAATTTGATCAAATATAACAAGTTTAAGTTAGGAGTTAGCGGAGTCACCTAGTGCAG	26800 fluorescence intensity (a.u.)
AGCATTACTAATTTGCTTCATATATTGTGTTTTGTGATGTCGGAGTCACCTAGTGCAG	7040 fluorescence intensity (a.u.)
TTTGATTGAAAGCAAATAAGTATGATATAGTTATATTTAACGGAGTCACCTAGTGCAG	26700 fluorescence intensity (a.u.)
TGTGACAAATGAGACAAATTTGACTAGGTGTCACATTGCTCGGAGTCACCTAGTGCAG	18800 fluorescence intensity (a.u.)
TGAGATAATTTTAAAATGCTAGAAACTGCTATATCTTCGGCGGAGTCACCTAGTGCAG	19500 fluorescence intensity (a.u.)
ACTGATAGAGCTGTAATAAGCGAGCACCCATACACCATGGCGGAGTCACCTAGTGCAG	16700 fluorescence intensity (a.u.)
AGGGAAAGTTGTGATTGAGGGAGGATGTTAGATAATGTTACGGAGTCACCTAGTGCAG	10100 fluorescence intensity (a.u.)
TCAGACATGTCTTTAATCGTGATTTTGATCTAATAGAAGGCGGAGTCACCTAGTGCAG	4880 fluorescence intensity (a.u.)
ATCCAATTACCGTTATTACACTTATGGGTTATCTGAATATCGGAGTCACCTAGTGCAG	15500 fluorescence intensity (a.u.)
TAATTAATTAGCACATGTTAAAAGTGGCAAGTTAAATGTCCGGAGTCACCTAGTGCAG	18400 fluorescence intensity (a.u.)
TTGAAACTAATTAGAAGTATTAAACGTAGACTAATGATAACGGAGTCACCTAGTGCAG	12600 fluorescence intensity (a.u.)
AATATATTATATTAATTATTCAAAATCACTCATTTATGCTCGGAGTCACCTAGTGCAG	5640 fluorescence intensity (a.u.)
GAGATAGAGATAATAGAAAGATTAAACAAGATTCGATAGACGGAGTCACCTAGTGCAG	3590 fluorescence intensity (a.u.)
GCCAATTAACCAATCGGCGTCGTCAGGCCTCTCGCGTGTGCGGAGTCACCTAGTGCAG	11200 fluorescence intensity (a.u.)
TTACGCCTATCATGTATTTGATTTGCATAGAAGCTGTTTACGGAGTCACCTAGTGCAG	24400 fluorescence intensity (a.u.)

Sequence	binding signal
AATTGATTTGGATTAATGGATACAACTTCACTCATATTCTCGGAGTCACCTAGTGCAG	32600 fluorescence intensity (a.u.)
CTATCCAATAATTTTGCCAATTAGCAAATACTAATTGATTCGGAGTCACCTAGTGCAG	29200 fluorescence intensity (a.u.)
CGTGTGACTGTTGCCGTGATGGTTTTGATGTTTGTTTTGGCGGAGTCACCTAGTGCAG	10200 fluorescence intensity (a.u.)
GGCCACTTTAATTGGTCCTGGAATGAATATTAGACTCTCCCGGAGTCACCTAGTGCAG	5890 fluorescence intensity (a.u.)
GTTAATGGATATACGGAAGGAAGTGCAGTGCCCTATATGCCGGAGTCACCTAGTGCAG	8760 fluorescence intensity (a.u.)
CTCTAATCCATTGATCAATCATCGACACCTCACGTTACAACGGAGTCACCTAGTGCAG	29000 fluorescence intensity (a.u.)
GGATTACCAAATTGGTTGGTTGAGCTCTGTCCTTGACTATCGGAGTCACCTAGTGCAG	5840 fluorescence intensity (a.u.)
ACAAATTTTCGGAGAGATTATACGTCTGTTGATGCTTAAGCGGAGTCACCTAGTGCAG	4120 fluorescence intensity (a.u.)
CTGCCTAATTTCAGAAAATTATGTGTTCACCAGATTTAAGCGGAGTCACCTAGTGCAG	12200 fluorescence intensity (a.u.)
CTAGATTATCACCGGCTAGCTTCTCCAACCCCAACCAAAGCGGAGTCACCTAGTGCAG	5460 fluorescence intensity (a.u.)
TAGGATAGATAATTGAGTATCCTTTAGCGGTTCAGCAACACGGAGTCACCTAGTGCAG	21900 fluorescence intensity (a.u.)
TTCATAATTTATTATATTTTCTCCATCATTTGAGACTATTCGGAGTCACCTAGTGCAG	12500 fluorescence intensity (a.u.)
CGTAGTGACGTGGTTAAATTAATCAAGATTGAGTTTTGTGCGGAGTCACCTAGTGCAG	12700 fluorescence intensity (a.u.)
AAAGGCCGTGATTGCCAGGGGTGTGAAGGAAATTCCCAATCGGAGTCACCTAGTGCAG	9900 fluorescence intensity (a.u.)
TGAGCTGTCAATTATTTGGGCCAAACACTACATTATGAGGCGGAGTCACCTAGTGCAG	14300 fluorescence intensity (a.u.)
TTTAAATTCTACAAATCAACTTAGTCACTGTTTGGCATATCGGAGTCACCTAGTGCAG	4950 fluorescence intensity (a.u.)
ATAAATTATTCACTGTTGACACTTAAGGATTTGACTTTACCGGAGTCACCTAGTGCAG	9520 fluorescence intensity (a.u.)
GTCTAATTAATCTGTCATTAGCAAATATTTATTGTAGAATCGGAGTCACCTAGTGCAG	35100 fluorescence intensity (a.u.)
CTTGAATGAACGTTTAAATGACAAGAAACAAGAATGAACACGGAGTCACCTAGTGCAG	5160 fluorescence intensity (a.u.)
TGCAGTTGTTAGGCCACCTTGATTTGATGTAGATATTAGCCGGAGTCACCTAGTGCAG	3270 fluorescence intensity (a.u.)
TTAAACTTAATATATTAACGTGTAATCTTTTACGCGTTCACGGAGTCACCTAGTGCAG	8860 fluorescence intensity (a.u.)
